Test results reported in PubChem BioAssay AID1477 (National Center for Advancing Translational Sciences (NCATS), 2009).
Out of some 230,000 compounds screened, fewer than 10 were called active. Inconclusive results, whose numbers are uncertain, are shown with a selection of clear calls. Calls come from the whole dose curve; as a rule, active = well fitted curve in the direction sought with a large enough effect; inconclusive = small, poorly fitted or top-dose-only effect, or effect the other way, or another doubt; inactive = no such curve, though single readings can be large or run the other way. No potency is given beside an inconclusive call; the fits are too rough.

biological target: Runt-related transcription factor 1 (Homo sapiens) + Core-binding factor subunit beta (Homo sapiens) (UniProt Q01196+Q13951); test: qHTS Assay for Compounds Blocking the Interaction Between CBF-beta and RUNX1 for the Treatment of Acute Myeloid Leukemia; conditions: AlphaScreen CBFb-His/RUNX1-biotin binding, biochemical; activity, negative = inhibition: at 59.8 µM (top of the series) unless noted; for activity, negative = inhibition: % of control where 0% means no effect
Sequence of UniProt Q01196 (Q01196 whole entry, looked up): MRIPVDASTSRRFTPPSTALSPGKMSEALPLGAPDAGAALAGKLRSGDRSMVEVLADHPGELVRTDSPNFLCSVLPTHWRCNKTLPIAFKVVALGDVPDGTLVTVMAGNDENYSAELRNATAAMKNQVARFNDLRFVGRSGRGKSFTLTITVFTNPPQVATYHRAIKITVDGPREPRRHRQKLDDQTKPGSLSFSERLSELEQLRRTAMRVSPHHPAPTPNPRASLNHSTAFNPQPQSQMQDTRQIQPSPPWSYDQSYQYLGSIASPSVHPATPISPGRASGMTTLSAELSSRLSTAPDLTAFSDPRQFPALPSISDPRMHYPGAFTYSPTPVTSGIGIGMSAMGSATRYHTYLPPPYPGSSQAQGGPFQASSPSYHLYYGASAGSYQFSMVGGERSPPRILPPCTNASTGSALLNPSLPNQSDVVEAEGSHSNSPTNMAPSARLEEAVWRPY
Sequence of UniProt Q01196 (Q13951 whole entry, looked up): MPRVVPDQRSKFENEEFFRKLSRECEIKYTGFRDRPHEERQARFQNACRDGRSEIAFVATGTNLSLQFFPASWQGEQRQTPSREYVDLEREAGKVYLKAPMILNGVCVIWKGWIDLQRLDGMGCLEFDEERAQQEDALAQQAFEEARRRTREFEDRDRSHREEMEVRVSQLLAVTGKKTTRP
Method in brief: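 AlphaScreen proximity signal reports loss of binding between His-tagged CBF-beta and biotin-labelled RUNX1, each at 30 nM. Proteins are pre-associated for 20 minutes, compounds added for 15 minutes, then beads for 90 minutes, all at ambient temperature.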

| Structure (SMILES) | activity, negative = inhibition | Potency |
| --- | --- | --- |
| CCN(CC)S(=O)(=O)c1ccc(NC(=O)c2ccc(Sc3nncn3C)c([N+](=O)[O-])c2)cc1 | inactive: -1.19% |  |
| Cc1ccc(NC(=O)c2cc(-n3cnnc3)ccc2Cl)cc1 |  | inconclusive [activator, full curve, poor fit] |
| COc1cc(Br)cc(C2C3=C(CCCC3=O)N(c3ccc(F)cc3)C3=C2C(=O)CCC3)c1O |  | inconclusive [inhibitor, partial curve, poor fit] |
| c1c2c(cc3sc(N4CCOCC4)nc13)OCO2 | inactive: 5.22% |  |
| Cc1cc2cc(CNS(=O)(=O)N(C)C)ccc2[nH]1 |  | inconclusive [inhibitor, partial curve] |
| C/C=C/c1ccc(OCCCCOc2ccccc2C(C)=O)c(OC)c1 |  | inconclusive [activator, single point] |
| O=C(Nc1nc2c(F)cc(F)cc2s1)C1CC(=O)N(Cc2ccco2)C1 (stereo not given) | inactive: -19% |  |
| NS(=O)(=O)c1ccc2nc(NC(=O)c3ccc(Br)o3)sc2c1 |  | inconclusive [activator, single point] |
| O=c1[nH]c(=O)n(Cc2ccco2)c(O)c1C=NCc1ccco1 | inactive: 0.855% |  |
| BrC(/C=N/Nc1nc(N2CCOCC2)nc(N2CCOCC2)n1)=C/c1ccccc1 | inactive: -4.9% |  |
| O=C(N/N=C/c1ccc(O)c2ncccc12)c1cccc(Br)c1 |  | inconclusive [inhibitor, partial curve] |
| Cc1cc(C)nc(NC(=O)c2cc(-c3ccc(C)s3)nc3ccccc23)c1 |  | inconclusive [activator, partial curve] |
| CCCCCCCCc1nc(=S)[nH][nH]1 | inactive: 6.33% |  |
| COc1ccc(-c2noc(CCC(=O)NCCCN3CCC(Cc4ccccc4)CC3)n2)cc1 | inactive: 1.02% |  |
| COC(=O)C1C2CC3c4[nH]c5cc(OC)ccc5c4CCN3CC2CC(OC(=O)c2cc(OC)c(OC)c(OC)c2)C1OC (stereo not given) |  | inconclusive [inhibitor, single point] |
| CC(C)Oc1ccccc1C1CC(=O)Nc2cc3c(cc21)OCO3 (stereo not given) | inactive: -6.28% |  |
| CCOP(=S)(OCC)Oc1ccc(Cl)cc1Cl |  | inconclusive [activator, single point] |
| O=C1Nc2ccccc2/C1=N\c1sc2c(c1C(=O)Nc1ccccc1)CCCC2 | inactive: -4.69% |  |
| CC1(OC(=O)C2CCCC2)C(=O)C=C2C=C(c3ccsc3)N(c3ccccc3)C=C2C1=O (stereo not given) |  | inconclusive [inhibitor, single point] |
| Cn1cnnc1SCC(=O)Nc1sc2c(c1C(N)=O)CCC2 |  | inconclusive [inhibitor, single point] |
